Hit rate of the full screen: of about 52,000 compounds, about 4,300 (8.3%) were called active. No stated cut-off is given here; in the data, active means survival mostly below about 52% (no sharp cut-off); inactive means mostly above about 56%. The list shows a part of the results.
These molecules were tested on DeltatarO mutant (assay: growth inhibition of S. aureus wild type versus tarO mutant, primary screen, teichoic acid synthesis inhibitors, RN4220, OD600 (AID 463173)). Settings: OD600, 18 h, hits give low values, screened at 18.75 µg/mL (by protocol).

| Compound | survival |
| --- | --- |
| Cc1ccc(S(=O)(=O)C2(C(=O)Nc3ccc(C(C)C)cc3)CC2)cc1 | active: 19% |
| Cc1cccc(CN2CCC(C(=O)N3CCC(C)CC3)CC2)c1 | inactive: 101% |
| COc1ccccc1Nc1c2c(nc3ccc(NC(=O)/C=C/c4cc(OC)c(OC)c(OC)c4)cc13)CCCC2 | inactive: 81% |
| CCN(CC)C(=O)CSc1cn(CC(=O)N2CCCCCC2)c2ccccc12 | inactive: 94% |
| Cc1ccc(NC(=O)C2CCN(c3nc4ccccc4nc3C(F)(F)F)CC2)cc1C | inactive: 91% |
| CCn1c2ccccc2c2nnc(N3CCN(c4ccc(OC)cc4)CC3)nc21 | inactive: 70% |
| COc1ccc(-c2cc(C(F)(F)F)nc(SCCC(=O)Nc3ccc(O)cc3)n2)cc1 | inactive: 70% |
| CCOC(=O)Cn1nc(C)c(NC(=O)COc2ccc(C)c(C)c2)c1C | inactive: 73% |
| CCCN(CCC)S(=O)(=O)c1ccc(N2CCCCS2(=O)=O)cc1 | inactive: 73% |
| CCOc1ccc(-n2cc(-c3ccccc3)c3c(NCc4ccc(F)cc4)ncnc32)cc1 | inactive: 95% |
| Cc1ccc(-n2ncc(C(=O)N3CCN(c4ncccn4)CC3)c2C2CCN(C(=O)OC(C)(C)C)CC2)cc1 | inactive: 80% |
| Cc1cc(C)cc(N2C(=O)CS(=O)(=O)C23C(=O)N(C)c2ccccc23)c1 (centres undefined) | inactive: 76% |
| Cc1nc(-c2ccc(S(=O)(=O)N(C)Cc3ccccc3)cc2)co1 | inactive: 95% |
| CCc1ccc(Nc2ncnc3sc4c(c23)CCCC4)cc1 | inactive: 72% |
| COc1ccc(CNc2n[nH]c(-c3ccco3)n2)cc1OC | active: 62% |
| COc1cc(NC(=O)Cn2c(=O)n(Cc3ccccc3Cl)c(=O)c3cc(OC)c(OC)cc32)cc(OC)c1 | inactive: 99% |
| O=C(N1CCOCC1)N1CCN(S(=O)(=O)c2ccccc2)C1 | inactive: 91% |
| CCCc1c(C(=O)OCC)nnc2c(-c3ccccc3)c(C)nn12 | inactive: 49% |
| CCCN(C(=O)c1cc2c(=O)n(CC)c3ccccc3c2s1)c1ccccc1F | inactive: 64% |
| COc1ccc(CCN2C(=O)N(c3ccc(F)cc3)C(=O)C2CC(=O)Nc2ccccc2)cc1OC (centres undefined) | inactive: 76% |
| Fc1ccc([C@@H]2Nc3ccccc3[C@@H]3C=CC[C@@H]32)cc1 | inactive: 56% |
| O=C1OC(C(=O)O)Cc2ccccc21 (centres undefined) | inactive: 94% |
| Nc1ccc(Cc2ccccc2)cc1 | inactive: 69% |

| Compound | survival |
| --- | --- |
| COc1ccc(/C=C/c2nc(C#N)c(N3CCCCCC3)o2)cc1OC | active: 45% |
| O=C(Cn1cc(S(=O)(=O)c2ccc(Cl)cc2)c(=O)c2ccccc21)Nc1ccc2c(c1)OCO2 | inactive: 60% |
| Cc1ccc(C)c(NC(=O)CSc2ncc3c(n2)-c2ccccc2N(Cc2ccccc2C)S3(=O)=O)c1 | inactive: 95% |
| Cc1ccc(C)c(S(=O)(=O)Nc2ccc3c(c2)CCCN3C(=O)c2cccs2)c1 | active: 47% |
| COc1ccc(CNS(=O)(=O)c2ccc3c(c2)NC(=O)C(C)C(=O)N3)cc1 (centres undefined) | inactive: 88% |
| Cc1nnc(N2CCC(C(=O)N3CCCCC3)CC2)c2nn(-c3ccccc3)c(C)c12 | inactive: 125% |
| COc1ccc(C)cc1NS(=O)(=O)c1ccc(-c2cnc(C3CC3)o2)cc1 | inactive: 78% |
| Cc1ccc(C)c(Nc2ncnc3c2cnn3-c2ccc(F)cc2)c1 | active: -1% |
| O=S(=O)(Nc1ccc(F)cc1F)c1ccc(Br)s1 | active: 22% |
| COc1ccc(OCc2ccc(-c3nc(C#N)c(N4CCC(C(N)=O)CC4)o3)o2)cc1 | inactive: 72% |
| Cc1ccc(CNC(=O)c2nnn(Cc3ccc(F)cc3)c2N)cc1 | inactive: 91% |
| COc1ccc(CCNC(=O)c2cnc3sc(N4CCOCC4)nn3c2=O)cc1OC | inactive: 82% |
| CCn1c2c(c(=O)n3ncc(C(=O)Nc4ccc(OC(F)(F)F)cc4)c13)CN(Cc1ccc(OC)cc1)CC2 | inactive: 94% |
| COc1ccc(CCNC(=O)c2c[nH]n3c(=O)c(Cc4ccccc4Cl)c(C)nc23)cc1OC | active: 32% |
| O=C(Nc1cc(-c2nc3cc(Cl)ccc3o2)ccc1Cl)c1cccc2ccccc12 | active: 44% |
| O=C(c1ccc(Nc2nc3ccccc3n3nnnc23)cc1)N1CCN(c2ccc(F)cc2)CC1 | inactive: 53% |
| COc1ccc(C2c3c(n(C)c4ccccc34)C(=O)N2CC(=O)Nc2ccccc2Cl)cc1 (centres undefined) | inactive: 102% |
| COc1cc(NC(=O)c2cc3nc(-c4ccc(C)cc4)cc(C(F)(F)F)n3n2)cc(OC)c1OC | active: 41% |
| CCOC(=O)C1=C(N)OC2=C(C(=O)CC(C)(C)C2)C1c1ccccc1 (centres undefined) | inactive: 73% |
| Cc1ccc(C(=O)N2CCc3cc(CNC(=O)c4ccnn4C)ccc32)cc1 | inactive: 91% |
| Cc1ccc(NS(=O)(=O)c2ccc3c(c2)NC(=O)CCS3)cc1F | inactive: 67% |
| Cc1cn(C)c(CC(=O)N2CCN(c3ccc(F)cc3)CC2)c1C(=O)O | inactive: 128% |
| O=C(NCc1ccc2c(c1)CCN2C(=O)c1ccccc1)c1ccc(Br)o1 | inactive: 84% |

| Compound | survival |
| --- | --- |
| CC(C)COC(=O)Nc1ccc2c(c1)OCO2 | inactive: 62% |
| COc1ccccc1N1CCN(c2cc(C)nc3c(-c4ccc(Cl)cc4)c(C)nn23)CC1 | inactive: 87% |
| COCCCNc1nc2c(c(=O)n(C)c(=O)n2C)n1Cc1ccccc1 | inactive: 92% |
| COCCOC(=O)C1=C(C)N=C2SCCC(=O)N2C1c1ccc(OCc2ccccc2)c(OC)c1 (centres undefined) | inactive: 58% |
| COc1cccc(-c2[nH]c3c(c2-c2c(-n4cccc4)n(C)c(=O)[nH]c2=O)c(=O)[nH]c(=O)n3C)c1 | active: 63% |
| COCCNC(=O)CCSc1nc(-c2ccc3c(c2)OCO3)cc(C(F)(F)F)n1 | inactive: 66% |
| CC(C)c1nc2ccc(C(=O)NCCCN3CCN(c4ccc(F)cc4)CC3)cc2o1 | inactive: 74% |
| CCC1CN(C(=O)N2CCC(C(=O)NCc3ccco3)CC2)c2cc(C)ccc2O1 (centres undefined) | inactive: 79% |
| COc1cccc(-n2c(-c3ccc(C)cc3)cc3c2CC(C)(C)CC3=O)c1 | active: 18% |
| CCCCOc1ccc(CNC(=O)c2cnc3sc(N4CCC(C)CC4)nn3c2=O)cc1 | inactive: 79% |
| Cc1ccc2c(c1)CC(C)N2S(=O)(=O)c1nnc(NC(=O)CC(C)C)s1 (centres undefined) | inactive: 59% |
| Cc1cc(C)c2c(CC(=O)Nc3c(C(=O)c4ccc(F)cc4)oc4ccccc34)coc2c1 | inactive: 90% |
| COc1ccc(OC)c(NC(=O)CCc2c(C)nc3c(c(C)nn3C(C)(C)C)c2C)c1 | inactive: 83% |
| CC(C)c1ccc2occ(CC(=O)Nc3cccc(C(F)(F)F)c3)c2c1 | active: 0% |
| Cc1sc2nc(C)n(NC(N)=O)c(=O)c2c1C | inactive: 97% |
| CCN(C(=O)Cn1cc(C(=O)c2ccc(F)cc2)c(=O)c2ccc(C)nc21)c1cccc(C)c1 | inactive: 71% |
| CC1CCCCN1c1nc(-c2ccc(C(C)(C)C)cc2)nc2ccccc12 (centres undefined) | active: 3% |
| COc1cc(NC(=O)Cn2c(=O)nc(-c3ccccc3F)c3cc(Cl)ccc32)cc(OC)c1 | inactive: 102% |
| Cc1ccc(C)c(N2CCN(C(=O)Cn3c(C)c4cnn(-c5ccccc5)c(=O)c4c3C)CC2)c1 | inactive: 105% |
| COC(=O)c1ccccc1NC(=O)Cn1nc(C(F)(F)F)c2c1CCCC2 | active: 5% |
| CCOc1ccc(C(=O)N2CCC(c3ccncc3)CC2)cc1 | inactive: 94% |
| COc1ccc(CC(=O)Nc2nnc3n2CCS3)cc1 | inactive: 79% |
| O=C(CC1Oc2ccccc2NC1=O)NCc1ccc(F)cc1 (centres undefined) | inactive: 118% |

| Compound | survival |
| --- | --- |
| Cc1ccc(CSc2nc3ccsc3c(=O)n2CCC(C)C)cc1 | active: -5% |
| O=c1oc2ccc(F)cc2cc1-c1nc(-c2cccs2)no1 | inactive: 92% |
| CCN1CCN(C(=O)c2ccc3c(c2)N(Cc2ccc(F)cc2)C(=O)c2ccccc2S3(=O)=O)CC1 | inactive: 135% |
| Cc1cccc(OCc2nnc(-c3ccccc3)o2)c1 | inactive: 50% |
| CCn1c2c(c(=O)n3ncc(C(=O)Nc4ccc(F)cc4Cl)c13)CN(Cc1ccc(OC)cc1)CC2 | inactive: 55% |
| CCOC(=O)Cn1nc[n+]2[nH]c(C)cc(=O)c12 | inactive: 73% |
| Cc1c(NC(=O)c2ccc(Cl)cc2)cc(C(C)C)c(O)c1S(=O)(=O)c1ccccc1 | inactive: 57% |
| CCc1ccc(NC(=O)c2ccc3c(O)c(S(=O)(=O)c4ccccc4)c(=O)[nH]c3c2)cc1 | inactive: 89% |
| Cc1cc(=O)n(Cc2ccccc2Cl)c2c1c(C)nn2-c1ccccc1 | inactive: 100% |
| Cc1cc(NC(=O)CSc2nc3c([nH]c4ccccc43)c(=O)n2-c2ccc(Cl)cc2)no1 | inactive: 80% |
| COc1ccccc1CNC(=O)CCS(=O)(=O)c1ccc2c(c1)CC(C)N2C(=O)C1CC1 (centres undefined) | active: 8% |
| O=C(NCC1CCN(Cc2ccccc2Cl)CC1)c1cc2ccc3cccnc3c2[nH]1 | inactive: 73% |
| COc1ccccc1CNC(=O)CCc1c(C)nn(-c2ccc(N3CCCC3)nn2)c1C | inactive: 69% |
| Cc1cc(C)cc(NC(=O)C2CCN(S(=O)(=O)c3c(C)noc3/C=C/c3ccco3)CC2)c1 | inactive: 73% |
| Cc1ccn2c(Nc3c(C)cccc3C)c(-c3ccc(Cl)s3)nc2c1 | active: 37% |
| CC1SC(c2ccccc2)N(Cc2ccccc2)C1=O (centres undefined) | inactive: 77% |
| Cc1ccc2scc(N3CCN(c4cccc(C(F)(F)F)c4)CC3)c(=O)c2c1 | inactive: 77% |
| CCCCN(CCCC)C1=C(C(=O)c2ccccc2)N(CC)S(=O)(=O)c2ccccc21 | active: 60% |
| COC(=O)CN1C(=O)C(C)(C)c2cc(S(=O)(=O)NCc3ccc(Cl)cc3)ccc21 | inactive: 84% |
| CCOc1ccc(-n2c(Cc3ccccc3)nnc2SCc2nc(-c3cccs3)no2)cc1 | inactive: 54% |

From PubChem BioAssay AID463173 (ICCB-Longwood Screening Facility, Harvard Medical School, 2010)
